Article PMC9911399, “Two distinct binding modes provide the RNA-binding protein RbFox with extraordinary sequence specificity”
Substitutions are numbered along the chain they refer to; changes in the protein carry UniProt numbers. The list shows a part of the results.

T1: RBFOX1 RRM (Homo sapiens, UniProt Q9NWB1 109-208)
T1 sequence: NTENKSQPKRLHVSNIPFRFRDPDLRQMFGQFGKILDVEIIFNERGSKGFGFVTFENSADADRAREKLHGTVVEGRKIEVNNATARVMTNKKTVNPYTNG

B1: GCCUGGA (DNA:RNA)
RNA: GGGAGACCGGAAUUCAGAUUGUCCGCCUGGAUUAAAUCCCGUCGUAGCCACCA
DNA 1: CAATCTGAATTCCGGTCTCCC
DNA 2: TGGTGGCTACGACGGGATT
B2: GGCUCAU (DNA:RNA)
RNA: B1 RNA with C26G, G29C, G30A, A31U
DNA 1: CAATCTGAATTCCGGTCTCCC
DNA 2: TGGTGGCTACGACGGGATT
B3: GCUGGAC (DNA:RNA)
RNA: B1 RNA with C27U, U28G, G30A, A31C
DNA 1: CAATCTGAATTCCGGTCTCCC
DNA 2: TGGTGGCTACGACGGGATT
B4: CCAUGAU (DNA:RNA)
RNA: B1 RNA with G25C, C27A, G30A, A31U
DNA 1: CAATCTGAATTCCGGTCTCCC
DNA 2: TGGTGGCTACGACGGGATT
B5: AUAGCAA (DNA:RNA)
RNA: B1 RNA with G25A, C26U, C27A, U28G, G29C, G30A
DNA 1: CAATCTGAATTCCGGTCTCCC
DNA 2: TGGTGGCTACGACGGGATT
B6: CGUCUGU (DNA:RNA)
RNA: B1 RNA with G25C, C26G, C27U, U28C, G29U, A31U
DNA 1: CAATCTGAATTCCGGTCTCCC
DNA 2: TGGTGGCTACGACGGGATT
B7: UUCAUGU (DNA:RNA)
RNA: B1 RNA with G25U, C26U, U28A, G29U, A31U
DNA 1: CAATCTGAATTCCGGTCTCCC
DNA 2: TGGTGGCTACGACGGGATT
B8: CCCGUUU (DNA:RNA)
RNA: B1 RNA with G25C, U28G, G29U, G30U, A31U
DNA 1: CAATCTGAATTCCGGTCTCCC
DNA 2: TGGTGGCTACGACGGGATT
B9: UGCGGUA (DNA:RNA)
RNA: B1 RNA with G25U, C26G, U28G, G30U
DNA 1: CAATCTGAATTCCGGTCTCCC
DNA 2: TGGTGGCTACGACGGGATT
B10: GCACCGG (DNA:RNA)
RNA: B1 RNA with C27A, U28C, G29C, A31G
DNA 1: CAATCTGAATTCCGGTCTCCC
DNA 2: TGGTGGCTACGACGGGATT
B11: UAGCACG (DNA:RNA)
RNA: GGGAGACCGGAAUUCAGAUUGUCCUAGCACGUUAAAUCCCGUCGUAGCCACCA
DNA 1: CAATCTGAATTCCGGTCTCCC
DNA 2: TGGTGGCTACGACGGGATT
B12: UCACCCA (DNA:RNA)
RNA: B11 RNA with A26C, G27A, A29C, G31A
DNA 1: CAATCTGAATTCCGGTCTCCC
DNA 2: TGGTGGCTACGACGGGATT
B13: GCUCCAG (DNA:RNA)
RNA: B1 RNA with C27U, U28C, G29C, G30A, A31G
DNA 1: CAATCTGAATTCCGGTCTCCC
DNA 2: TGGTGGCTACGACGGGATT
B14: AUAAUUG (DNA:RNA)
RNA: B11 RNA with U25A, A26U, G27A, C28A, A29U, C30U
DNA 1: CAATCTGAATTCCGGTCTCCC
DNA 2: TGGTGGCTACGACGGGATT
B15: CAAGAGU (DNA:RNA)
RNA: B11 RNA with U25C, G27A, C28G, C30G, G31U
DNA 1: CAATCTGAATTCCGGTCTCCC
DNA 2: TGGTGGCTACGACGGGATT
B16: UCAACCU (DNA:RNA)
RNA: B11 RNA with A26C, G27A, C28A, A29C, G31U
DNA 1: CAATCTGAATTCCGGTCTCCC
DNA 2: TGGTGGCTACGACGGGATT
B17: GCUUCUA (DNA:RNA)
RNA: B1 RNA with C27U, G29C, G30U
DNA 1: CAATCTGAATTCCGGTCTCCC
DNA 2: TGGTGGCTACGACGGGATT
B18: AAUGUCU (DNA:RNA)
RNA: B11 RNA with U25A, G27U, C28G, A29U, G31U
DNA 1: CAATCTGAATTCCGGTCTCCC
DNA 2: TGGTGGCTACGACGGGATT
B19: UACACAC (DNA:RNA)
RNA: B11 RNA with G27C, C28A, A29C, C30A, G31C
DNA 1: CAATCTGAATTCCGGTCTCCC
DNA 2: TGGTGGCTACGACGGGATT
B20: UUCUUAA (DNA:RNA)
RNA: B1 RNA with G25U, C26U, G29U, G30A
DNA 1: CAATCTGAATTCCGGTCTCCC
DNA 2: TGGTGGCTACGACGGGATT
B21: UUACCUC (DNA:RNA)
RNA: B11 RNA with A26U, G27A, A29C, C30U, G31C
DNA 1: CAATCTGAATTCCGGTCTCCC
DNA 2: TGGTGGCTACGACGGGATT
B22: AAAGUGA (DNA:RNA)
RNA: B1 RNA with G25A, C26A, C27A, U28G, G29U
DNA 1: CAATCTGAATTCCGGTCTCCC
DNA 2: TGGTGGCTACGACGGGATT
B23: UAAACGC (DNA:RNA)
RNA: B11 RNA with G27A, C28A, A29C, C30G, G31C
DNA 1: CAATCTGAATTCCGGTCTCCC
DNA 2: TGGTGGCTACGACGGGATT
B24: AAAAGCG (DNA:RNA)
RNA: B11 RNA with U25A, G27A, C28A, A29G
DNA 1: CAATCTGAATTCCGGTCTCCC
DNA 2: TGGTGGCTACGACGGGATT
B25: UACUGCA (DNA:RNA)
RNA: B1 RNA with G25U, C26A, G30C
DNA 1: CAATCTGAATTCCGGTCTCCC
DNA 2: TGGTGGCTACGACGGGATT
B26: AAAGCGA (DNA:RNA)
RNA: B1 RNA with G25A, C26A, C27A, U28G, G29C
DNA 1: CAATCTGAATTCCGGTCTCCC
DNA 2: TGGTGGCTACGACGGGATT
B27: GUAACGU (DNA:RNA)
RNA: B1 RNA with C26U, C27A, U28A, G29C, A31U
DNA 1: CAATCTGAATTCCGGTCTCCC
DNA 2: TGGTGGCTACGACGGGATT
B28: AAAUCUA (DNA:RNA)
RNA: B1 RNA with G25A, C26A, C27A, G29C, G30U
DNA 1: CAATCTGAATTCCGGTCTCCC
DNA 2: TGGTGGCTACGACGGGATT
B29: UGUCUGG (DNA:RNA)
RNA: B11 RNA with A26G, G27U, A29U, C30G
DNA 1: CAATCTGAATTCCGGTCTCCC
DNA 2: TGGTGGCTACGACGGGATT
B30: UCCCGCG (DNA:RNA)
RNA: B11 RNA with A26C, G27C, A29G
DNA 1: CAATCTGAATTCCGGTCTCCC
DNA 2: TGGTGGCTACGACGGGATT
B31: AGUUUCU (DNA:RNA)
RNA: B1 RNA with G25A, C26G, C27U, G29U, G30C, A31U
DNA 1: CAATCTGAATTCCGGTCTCCC
DNA 2: TGGTGGCTACGACGGGATT

Molecular target: T1, RBFOX1 RRM
Experiment: EMSA; HiTS-Eq, 1 nM pool, 10 min; buffer printed only for the single-RNA assays: 10 mM Tris pH 7.5, 150 mM NaCl, 3.4 mM EDTA, 0.001% NP-40, 30 C
Settings: tags: His6 N-terminal (pET28a); label: 5' 32P
Summary of the method: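 Purified RbFox RRM (wild type or mutant) was equilibrated for 10 min in 50 µL with 1 nM of a 5′-radiolabelled pool of RNA with 7 randomized nucleotides, its flanks annealed to DNA oligonucleotides, across increasing protein concentrations. Free RNA was separated by 8% native PAGE, excised, reverse-transcribed, PCR-barcoded and sequenced on an Illumina HiSeq 2500. Relative association constants came from read-count changes of each variant against the control reaction, normalised to the cognate motif.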

| Binder | binding signal |
| --- | --- |
| B1 | 0.0181 KA relative to UGCAUGU |
| B2 | 0.0062 KA relative to UGCAUGU |
| B3 | 0.0106 KA relative to UGCAUGU |
| B4 | 0.00686 KA relative to UGCAUGU |
| B5 | 0.0012 KA relative to UGCAUGU |
| B6 | 0.0134 KA relative to UGCAUGU |
| B7 | 0.0115 KA relative to UGCAUGU |
| B8 | 0.00209 KA relative to UGCAUGU |
| B9 | 0.0199 KA relative to UGCAUGU |
| B10 | 0.00674 KA relative to UGCAUGU |
| B11 | 0.0464 KA relative to UGCAUGU |
| B12 | 0.00148 KA relative to UGCAUGU |
| B13 | 0.00747 KA relative to UGCAUGU |
| B14 | 0.00814 KA relative to UGCAUGU |
| B15 | 0.00517 KA relative to UGCAUGU |
| B16 | 0.00233 KA relative to UGCAUGU |

| Binder | binding signal |
| --- | --- |
| B17 | 0.012 KA relative to UGCAUGU |
| B18 | 0.0125 KA relative to UGCAUGU |
| B19 | 0.000979 KA relative to UGCAUGU |
| B20 | 0.00449 KA relative to UGCAUGU |
| B21 | 0.00238 KA relative to UGCAUGU |
| B22 | 0.00633 KA relative to UGCAUGU |
| B23 | 0.00549 KA relative to UGCAUGU |
| B24 | 0.00293 KA relative to UGCAUGU |
| B25 | 0.0178 KA relative to UGCAUGU |
| B26 | 0.0057 KA relative to UGCAUGU |
| B27 | 0.0104 KA relative to UGCAUGU |
| B28 | 0.00218 KA relative to UGCAUGU |
| B29 | 0.031 KA relative to UGCAUGU |
| B30 | 0.00158 KA relative to UGCAUGU |
| B31 | 0.0077 KA relative to UGCAUGU |
